{"source": "the RNAGym collection of RNA variant scans (doi:10.7554/elife.90254)", "parents": {"B1": {"name": "OR4K15 (parent)", "chain": "GUUAACGGUCAUAGGCCAUGGAAACUAGGAGCACCAUUUCGCUGCCAGUGAAGAAAUGAACAAAGAAAAUCUGGGCCAGGCAGGCAUCAAAAGAAAUAGUCUUGCGCUCAACCAGAAAGUCUGUAAUCAUUUUAAGGGUA"}}, "note": "Read counts are not given, so values of variants with three or more changes are uncertain.", "data": [{"variants_of": "B1", "assay": "self-cleavage, relative activity (ratio to wild type); higher = more cleavage; in vitro, sequencing; the parent is a self-cleaving ribozyme", "values": [{"variant": "U9G U37C G75A", "self-cleavage": 0.16}, {"variant": "A13G A62G A94U U102C U127C", "self-cleavage": 1.32}, {"variant": "A18C A86G A135G", "self-cleavage": 1.32}, {"variant": "U2C A64G A114U A116U", "self-cleavage": 0.03}, {"variant": "U70A G93A U139C", "self-cleavage": 1.45}, {"variant": "G8A A11U A59G U87C G104A A125G", "self-cleavage": 0.01}, {"variant": "U9C U49C A54U A86U A135G U139C", "self-cleavage": 1.72}, {"variant": "U72C C112G U130C", "self-cleavage": 0}, {"variant": "U9C U26C G74A", "self-cleavage": 0.38}, {"variant": "U3C A22G A63G U132C", "self-cleavage": 1.58}, {"variant": "A27C G28U U87C A94G", "self-cleavage": 0.83}, {"variant": "A5G A47G A66G U108A A111G", "self-cleavage": 0.03}, {"variant": "A33G A64G A82U", "self-cleavage": 0.04}, {"variant": "U26C A67G G84U C128U U132C", "self-cleavage": 0.29}, {"variant": "U39C A52G U103C U124C", "self-cleavage": 0.44}, {"variant": "A91G A114U U131C", "self-cleavage": 0}, {"variant": "U57C A59U U102G U103C", "self-cleavage": 0.02}, {"variant": "U38C U49A A117U", "self-cleavage": 0.86}, {"variant": "A4G U37C U57A U70C A78U", "self-cleavage": 0.45}, {"variant": "A22U U43C U120C", "self-cleavage": 0.28}, {"variant": "A33U U43A A54G A90G", "self-cleavage": 0.95}, {"variant": "U26C A33G G75A U100C U108C U124A", "self-cleavage": 0}, {"variant": "A55G A68G U70C", "self-cleavage": 0.3}, {"variant": "A30G A90G A118G", "self-cleavage": 0.69}, {"variant": "A30G U39G A92U", "self-cleavage": 1.65}, {"variant": "A63G G83A A94G", "self-cleavage": 1.55}, {"variant": "U9C A60G A86G G119A U130A", "self-cleavage": 2.21}, {"variant": "U57C A62C A89G A117G", "self-cleavage": 0.36}, {"variant": "G8A A89G A98G A129G", "self-cleavage": 0.18}, {"variant": "A33U A91G A92C U103G U122C", "self-cleavage": 0.03}, {"variant": "A22G C45U A126G", "self-cleavage": 1.12}, {"variant": "A18U A68U A91U U124C A125G", "self-cleavage": 1.22}, {"variant": "U43C A91G U103C", "self-cleavage": 0.49}, {"variant": "A22U U26A U37C A56G A95G", "self-cleavage": 1.52}, {"variant": "U2C U43A U57C A82G", "self-cleavage": 0.21}, {"variant": "A5G A13U U57C A90G", "self-cleavage": 0.52}, {"variant": "C25U A78G A135U", "self-cleavage": 0.24}, {"variant": "A33G U87A A92G", "self-cleavage": 0.76}, {"variant": "A24C U38C A60G", "self-cleavage": 1.27}, {"variant": "A23G A52G A95G A114G G137A", "self-cleavage": 1.02}, {"variant": "A11U A59G A111U", "self-cleavage": 0.06}, {"variant": "A63G A110G A111G G136U", "self-cleavage": 0.02}, {"variant": "U9C A55G A62G U72C", "self-cleavage": 0.5}, {"variant": "A18U C32U A67G A110C", "self-cleavage": 0.15}, {"variant": "A36G U57C A90G U108G A110U", "self-cleavage": 0.01}, {"variant": "A52G A90U U130C A135U", "self-cleavage": 0.79}, {"variant": "U19A A59G A68G U102C", "self-cleavage": 2.44}, {"variant": "U49C A64G A86U A94G", "self-cleavage": 1.45}, {"variant": "C6U G14A U19A A55G G73A A82U A110G", "self-cleavage": 0.03}, {"variant": "A18U A54G A60G", "self-cleavage": 1.03}, {"variant": "U39C A60G A92U A117G A118G", "self-cleavage": 0.36}, {"variant": "U19C A67U A94G", "self-cleavage": 1.59}, {"variant": "A18G A55G A90U A125G", "self-cleavage": 0.36}, {"variant": "A111G U131G A135G", "self-cleavage": 0.01}, {"variant": "A90U A111G A118G", "self-cleavage": 0}, {"variant": "U37C A47U A59G A116G A117U U131C", "self-cleavage": 0.03}, {"variant": "A54G A62U A78G A91G U103C", "self-cleavage": 0.07}, {"variant": "A13G A18G U37A", "self-cleavage": 0.74}, {"variant": "G7C A90U A94U U124C", "self-cleavage": 0.39}, {"variant": "U39A A67G A78U", "self-cleavage": 0.3}, {"variant": "C17U U19C A30G A67G A68G U122C U131C", "self-cleavage": 0.82}, {"variant": "A23G A24G U43C A55G A86G G104U A129G", "self-cleavage": 0.03}, {"variant": "A5G A27G A30U A68G G106U A110U", "self-cleavage": 0}, {"variant": "A47G U120C U133C", "self-cleavage": 0.97}, {"variant": "A55G A69G G74A", "self-cleavage": 0.15}, {"variant": "U43A A54G U139C", "self-cleavage": 2.11}, {"variant": "A5G A22G A47G A90G U120C U122C", "self-cleavage": 0.47}, {"variant": "A5G U9C A78G A89G A94C U127C", "self-cleavage": 0.34}, {"variant": "U26C A27G U49C U102A U124A U139C", "self-cleavage": 0.55}, {"variant": "U9A G29C U87C", "self-cleavage": 0.98}, {"variant": "A13G A55G U102A", "self-cleavage": 0.44}, {"variant": "U57A A95G U103C A126G", "self-cleavage": 0.61}, {"variant": "A27G U37C A90G", "self-cleavage": 1.1}, {"variant": "A5C A47G A67G G93U", "self-cleavage": 1.12}, {"variant": "A52G A60G U87C U103C", "self-cleavage": 0.64}, {"variant": "A5G A30G U120C", "self-cleavage": 1.06}, {"variant": "A11G U108C A114G A117G", "self-cleavage": 0}, {"variant": "A56U A117G U133C", "self-cleavage": 2.92}, {"variant": "A5G U9C U38C U39A U72A A92G A117G", "self-cleavage": 0.25}, {"variant": "A11G A47U A140G", "self-cleavage": 0.99}, {"variant": "U2C A62G A90G U108C", "self-cleavage": 0.03}, {"variant": "A30G G41A A55U U108A U120C", "self-cleavage": 0.01}, {"variant": "C32U A62U U122C", "self-cleavage": 1.49}]}]}
